According to the supplement of paper PMC3334620:
The full ranking holds about 33,000 sequences; the median of “E-score (-0.5 to 0.5)” is about -0.017, and the highest 2% start at about 0.3. This is one part of the list.

target: T1, Sut1 (UniProt P53032); assay: PBM E-score (8-mer binding enrichment) (E-score (-0.5 to 0.5)); higher = stronger / more preferred TF binding; most listed sequences are background and not binding sites; details: protein concentration: 200 nM; construct: GST-full length
T1 sequence: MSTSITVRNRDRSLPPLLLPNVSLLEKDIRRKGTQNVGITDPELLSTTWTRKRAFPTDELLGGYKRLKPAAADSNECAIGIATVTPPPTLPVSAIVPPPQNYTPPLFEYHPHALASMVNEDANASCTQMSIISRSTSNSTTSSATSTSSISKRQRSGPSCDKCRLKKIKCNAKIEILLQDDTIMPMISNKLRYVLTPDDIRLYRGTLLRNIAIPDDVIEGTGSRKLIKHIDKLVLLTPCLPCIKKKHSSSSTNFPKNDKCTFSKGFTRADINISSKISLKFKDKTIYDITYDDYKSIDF
Description: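 Universal 'all 10-mer' protein binding microarrays (Agilent AMADID 015681) probed with GST-tagged S. cerevisiae TFs (full-length or DBD) made by in vitro transcription/translation (PURExpress), about 100-200 nM. Bound TF was detected with fluorescent anti-GST. Each ungapped 8-mer (which stands for itself and its reverse complement) is scored by the PBM enrichment score (E-score), a modified Wilcoxon-Mann-Whitney statistic from -0.5 to +0.5, computed with the Universal PBM Analysis Suite. Scale: above 0.35 generally sequence-specific binding.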

Sequence | PBM E-score
GACCAGAA | -0.0635
GGGCCTTA | -0.289
ACGAATAA | 0.202
GCCGGGCC | -0.0944
AGGTCAGG | -0.175
ATCTGGAC | -0.0329
ATTTTAGC | 0.016
GGATTTCA | 0.117
CGCGTGTC | 0.00193
TATGGGCA | -0.206
GCGGCCCC | -0.274
TGTTTAAA | 0.111
ACCTGGTA | -0.25
GAAAAGCC | -0.0607
ATCATACA | 0.314
ATCATTAG | 0.0427
GAACAAGC | -0.126
ATTAGGTG | 0.0551
ACAGCTAA | -0.206
GCGGAAGA | -0.02
CGCTCATC | -0.0962
CTTGGTCA | 0.0288
GCACGCTA | -0.187
AGGGCTAC | -0.234
ATGGGTCC | -0.00462

Sequence | PBM E-score
AGCAGCTC | -0.143
CAGATCGC | -0.143
GGGTCACC | -0.274
ATATCCCC | 0.0201
AGCGGGAG | -0.135
CGGTCACG | -0.101
GCCGGCTA | 0.0118
ACGGTCCC | -0.1
AGCAAACC | 0.105
CTGACGAA | -0.097
AGAGTCGA | -0.00899
GCACTGCA | -0.173
GACGCTAA | -0.156
CCCCACCA | -0.165
ATGGGATC | -0.0599
ATCTAGTC | 0.181
CGTTATGA | 0.0561
CGTCCTCC | -0.109
AGCTAAAC | 0.0208
AAACTTAC | 0.198
AAAACTGT | 0.0755
CTCGATCA | 0.105
ACGCGAAA | 0.0318
AGTCACTC | 0.0366
AGTTGATA | 0.194

Sequence | PBM E-score
CTGAACAG | -0.0485
GACTCACA | 0.0376
GTCCCGCA | -0.159
GCGCTGCA | -0.114
CTGGAACA | 0.047
CGCGCTGC | -0.2
CCCGCTGC | -0.256
CACCTGTC | -0.0444
AGCACTCC | 0.221
GGTATTCA | 0.134
GTCTTATA | 0.114
ACAGGGCA | -0.0896
CAGATAAG | -0.00748
AAATCACA | -0.0404
ATTCAGTC | -0.00502
AAAATAGA | 0.319
CGATCCCC | -0.0782
AGCGGCCA | -0.158
CCCGTGCC | -0.126
GATGCTAC | -0.0972
AGCTACAA | 0.0435
ATGATGGC | -0.143
ACGAGAGA | -0.233
CTATGAGA | 0.0291
CAGGTTAA | -0.243

Sequence | PBM E-score
AAACTCTA | 0.206
AAAATCTA | 0.196
CAGTTATC | 0.0171
AGTGCTGC | -0.00589
AACCCATA | 0.0141
ATCGCCGG | 0.266
ACCGTCGG | -0.0456
AGTGACTG | 0.00842
AGCTCAAC | -0.069
GCTCCACC | -0.139
ACCCCTCG | -0.252
GTTTTTAA | 0.209
ATAGAATC | 0.158
AATTACGG | 0.226
ACATGATG | -0.0261
AACTCGGT | 0.0362
AATGAAAT | 0.208
AACATTGT | 0.206
AGTATCCC | -0.192
AAAAAGAA | 0.225
GCTCTACC | -0.282
TCTCTGAA | -0.135
AGCCCGGC | 0.00111
CCCACAGC | -0.225
AAAGTACT | -0.0529

Sequence | PBM E-score
CCAGACCG | 0.0773
CATCCACC | -0.0255
GTAAGAAA | -0.00358
AGCCTCGC | -0.308
AGCATTGG | -0.159
AACGAGTC | -0.049
GTGAGTCA | -0.102
ATTAGTGA | 0.207
CATAACCA | -0.11
GTACAAAC | 0.0652
GCGTGGAA | -0.0811
TATGGTAA | 0.0166
GGCATGTA | -0.0345
ATAATTAG | 0.235
AAAGCGTC | -0.181
TCCCATCA | -0.241
ACCATGTG | -0.0621
ACTCTACC | 0.0499
ATCATGCC | -0.0529
TGGAAGAA | 0.141
GGTGGTAA | 0.174
AACCCAGG | -0.175
ATTGCGAA | -0.0685
AGTCGGTA | -0.0112
GTCAAGTA | -0.196

Sequence | PBM E-score
CGAAAGTC | 0.0394
GTCCACTA | -0.0452
AGTAAAAG | 0.191
CACTGCGC | -0.235
AAAGAGTG | 0.0512
GAGACTCC | 0.207
CAAAAGTG | -0.13
CGCTGTCC | -0.0487
AGGAGAGA | -0.0542
AGTGTACA | 0.0106
AGGGGAGA | -0.303
TTTTAAAA | 0.217
GTGGCTTA | -0.207
CGGTAGGC | -0.216
CTTCCAAC | -0.13
CGCAGTCC | -0.0495
GAGGCTTA | 0.0145
CGTAGCAA | -0.0358
AAGCTGCT | -0.132
TAGACGGA | 0.181
GAGCTTTA | 0.0948
GCGGGACC | -0.0718
ACCTCACT | 0.0751
CCTCGAGA | -0.087
ACACGTAG | -0.166

Sequence | PBM E-score
TCTCGGCA | 0.00619
CCCCTTAA | -0.167
ACACATAA | 0.223
GCACGCAC | -0.135
AACGGGAG | 0.15
TCACGCGA | -0.0127
CAGATGGG | -0.192
ACCATCGT | -0.189
GTCCCGGA | 0.348
ACCGAATA | 0.0367
CAAGACGG | -0.196
AGCACAAA | 0.112
GAGTTTTA | 0.255
CACCATGC | -0.315
CCCGACGA | 0.0804
CCTAGTAG | -0.196
ATTGATAA | 0.236
CCTGGTAA | -0.0626
CGGCGTTC | 0.0383
GCGGAATA | 0.217
GCATGAAC | -0.0057
CATCGCAC | -0.0701
